# Laboratory results published in PubChem BioAssay AID938 (National Center for Advancing Translational Sciences (NCATS), 2007).
# In all, about 73,000 compounds went through this assay and about 1,800 (2.5%) were called active. The inconclusive results got no clear call from the source; some entries with a clear call stand among them for comparison. Calls follow the shape of the dose curve; as a rule, active = well fitted activation curve with a large enough effect; inconclusive = small, poorly fitted or top-dose-only effect; inactive = no such curve, though single readings can be large or run the other way. Potencies of inconclusive entries are left out as doubtful fits.
# Assay: qHTS Assay for Agonists of the Thyroid Stimulating Hormone Receptor: Activators of Intracellular cAMP Concentrations in Parental HEK 293; also: nearly all actives have a fitted effect of over 55% in size; as to activation: % of control where 0% means no effect
# Conditions: parental HEK293 CNG cAMP sensor, membrane potential fluorescence; activation: at 57.1 µM (top of the series) unless noted
# Method in brief: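 Parental HEK 293 cells stably expressing a modified CNG channel (no TSHR) report cAMP rise as membrane depolarization. Membrane potential dye with 100 uM RO 20-1724 was loaded for 60 min at room temperature, then compound added for 30 min; fluorescence read at 590 nm.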
# Potency is read from the fitted curve at half-maximal effect; tags tell the direction and shape of the fitted curve.
SMILES,activation,Potency
CCOC(=O)c1sc(NC(=O)c2ccc3ncsc3c2)nc1C,inactive: 10.8%,–
CCn1c2ccccc2c2nnc(NCCCO)nc21,inactive: 12.4% [at 11.4 µM],–
COC(=O)c1ccc(Nc2nc(C)cc(=O)[nH]2)cc1,–,active: 12.6 µM
Clc1ccc(Cl)c(-c2nn3c(Cn4cnc5ccccc54)nnc3s2)c1,–,"inconclusive [activator, single point]"
COC(=O)C(NC(=O)c1ccccc1)c1ccccc1 (stereo not given),inactive: 6.23%,–
COC(=O)c1sc(NC(=O)CSc2nnnn2-c2ccc(C)cc2C)nc1C,–,"inconclusive [activator, partial curve]"
O=C(NCc1ccccc1)N(Cc1nc2ccccc2c(=O)[nH]1)C1CCCC1,inactive: 2.99%,–
CC1CC(C)CN(c2oc(-c3ccco3)nc2C#N)C1 (stereo not given),–,active: 15.8 µM
COC(=O)c1ccc(Cn2cnc3c(cnn3-c3ccc(F)cc3)c2=O)o1,–,"inconclusive [activator, partial curve]"
CC(C)N(Cc1nc(-c2ccc(Cl)cc2)no1)C(=O)CCCN1C(=O)c2ccccc2C1=O,–,"inconclusive [activator, partial curve]"
COc1ccc(CCN(Cc2cccs2)S(=O)(=O)c2ccc(-n3cnnn3)cc2)cc1OC,–,"inconclusive [activator, partial curve]"
Cc1cccc(NC(=O)C2c3ccccc3C(=O)N3CCc4ccccc4C23)n1 (stereo not given),inactive: 29.8%,–
O=C(NC1CCCCC1)C(c1ccco1)N(C(=O)c1csnn1)C1CCCC1 (stereo not given),–,"inconclusive [activator, full curve]"
CCCn1c(=O)c2ccccc2n2c(SCCOc3ccccc3)nnc12,–,active: 10 µM
COC(=O)c1cc2ccsc2n1CC(=O)N1CCCc2ccccc21,–,"inconclusive [activator, single point]"
CC(C)(C)C1CCC2(CC1)C(C#N)=C(SCC(=O)NC1CCCCC1)NC(=O)C2C#N (stereo not given),inactive: -0.119%,–
O=C(CCC1CCCCC1)N1CCN(Cc2ccc3c(c2)OCO3)CC1,–,"inconclusive [activator, single point]"
Cc1ccc(S(=O)(=O)CCC(=O)c2ccc(O)cc2O)cc1,–,"inconclusive [activator, partial curve]"
O=C(Nc1sc2c(c1C(=O)NC1CCCCC1)CCC2)c1ccco1,inactive: 23.6%,–
CCC1(c2ccccc2)C(=O)NCNC1=O,–,"inconclusive [activator, single point]"
COc1ccc(C(C)=O)c(Oc2nc(CN3CCOCC3)nc3scc(-c4cccs4)c23)c1,–,"inconclusive [activator, partial curve, poor fit]"
CN1C=CC=C/C1=C(\C#N)c1nc2ccccc2[nH]1,inactive: -10.4%,–
COC(=O)C1=C(C)N(c2cccc(C(C)=O)c2)C(=O)C1,–,"inconclusive [activator, single point]"

SMILES,activation,Potency
COc1ccccc1NC(=O)C(C)N1CCN(C/C=C/c2ccccc2)CC1 (stereo not given),–,"inconclusive [activator, full curve, poor fit]"
Cc1ccc2c(c1)N(CC(=O)NCc1cccs1)C(=O)CO2,–,"inconclusive [activator, partial curve]"
Cc1c(Cl)cccc1-n1nnnc1-c1cccs1,–,"inconclusive [activator, full curve]"
CC(C)n1c(Nc2ccccc2)nc2ccccc21,inactive: 1.39%,–
Cc1cc(C)c(C(=O)CSc2nnc(-c3ccccc3Br)o2)cc1C,–,active: 15.8 µM
O=C(O)/C=C\C=C/c1ccc2c(c1)OCO2,inactive: 10.3% [at 11.4 µM],–
CCc1nnc(NC(=O)CSc2nnc(COc3ccccc3)n2-c2ccc(C)cc2)s1,–,"inconclusive [activator, single point]"
COc1cc2ncnc(Nc3cccc(Br)c3)c2cc1OC,–,"inconclusive [activator, single point]"
O=C(CN1CCOCC1)N1CCN(C(=O)CN2CCOCC2)CC1,–,"inconclusive [activator, single point]"
CCC(C)(C)NC(=O)C(c1cccn1C)N(Cc1ccccc1)C(=O)Cn1nnc2ccccc21 (stereo not given),–,active: 10 µM
CCCCN1CN(S(=O)(=O)c2cccs2)c2nc3ccccc3nc21,–,"inconclusive [activator, partial curve]"
COc1ccc(NC(=O)CCc2ccccc2)cc1NC(=O)c1ccco1,–,"inconclusive [activator, single point]"
O=C(Cn1nnc(-c2ccccc2F)n1)Nc1ccc(C(=O)N2CCOCC2)cc1,–,"inconclusive [activator, single point]"
CCOc1ccccc1N(CC(=O)NC(C)(C)C)C(=O)c1ccc(CN2CCOCC2)o1,–,"inconclusive [activator, partial curve]"
CCc1ccc2[nH]c(=O)c(CN(CCO)C(=O)NCc3ccccc3)cc2c1,–,"inconclusive [activator, single point]"
CCOC(=O)CSc1nnc(-c2cccs2)n1-c1ccccc1,–,"inconclusive [activator, partial curve, poor fit]"
CCN(CC)c1ccc(-c2nn3c(-c4ccccc4OC)nnc3s2)cc1,–,"inconclusive [activator, partial curve]"
CCC(=O)Nc1cc(NC(=O)CSc2ncc(-c3ccc(F)cc3)n2Cc2ccco2)ccc1C,–,"inconclusive [activator, single point]"
CC(C(=O)O)C1SC(=O)NC1=O (stereo not given),–,"inconclusive [activator, single point]"
CCOc1ccc2nc(SC(CC)C(=O)Nc3cc(C)on3)sc2c1 (stereo not given),–,"inconclusive [activator, single point]"
N#CC(=C1CCCC1)c1nc(-c2ccccc2O)cs1,–,"inconclusive [activator, single point]"
O=C(CSCc1ccccc1)N1CCN(Cc2ccc3c(c2)OCO3)CC1,–,"inconclusive [activator, single point]"
